According to PubChem BioAssay AID720584 (National Center for Advancing Translational Sciences (NCATS), 2013):
The inconclusive results got no clear call from the source; some entries with a clear call stand among them for comparison. Potencies of inconclusive entries are left out as doubtful fits. The source made the active and inactive calls. Calls come from the whole dose curve; as a rule, active = well fitted inhibition curve with a large enough effect; inconclusive = small, poorly fitted or top-dose-only effect; inactive = flat fitted curve, though single readings scatter.

Tested on: Trypanosoma brucei pyruvate kinase (TbPYK)
Experiment: qHTS of Trypanosoma Brucei Inhibitors: Orthogonal Assay for Cherry-picked Compounds; note: nearly all actives have a fitted effect of over 75% in size
Settings: recombinant TbPYK, ADP-Glo luminescence, 60 min; series mostly up to 76.9 µM
In short: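 Inhibition of TbPYK is read as luminescence from remaining ADP. Reactions contain 130 uM ADP (final) in TEA buffer pH 7.2 with KCl and MgCl2, incubate 60 min at room temperature, with no-enzyme controls.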
Potency is the fitted concentration of half-maximal effect; tags give direction and shape of the fitted curve.

SMILES | Potency
O=C1C=CC(=O)N1c1ccc2ccccc2c1 | inconclusive [inhibitor, single point]
O=S(=O)(/N=S1\CC=CCN1S(=O)(=O)c1ccccc1)c1ccccc1 (configuration not stated) | active: 1.41 µM
CC1(C)Cc2c(C#N)c(SCC(=O)c3ccccc3)nc(N3CCOCC3)c2CO1 | active: 11.2 µM
COc1ccc(C(=O)CSc2nnc(-c3ccco3)c(-c3ccco3)n2)cc1 | active: 35.5 µM
COc1cccc(NC(=O)c2sc3nc(N4CCOCC4)c4c(c3c2N)CCCC4)c1 | inconclusive [inhibitor, partial curve]
COc1ccc(N2C(=O)CC(Sc3ncn[nH]3)C2=O)c(OC)c1 (configuration not stated) | inconclusive [inhibitor, full curve]
O=C(NCc1ccco1)c1cc2ccc(O)cc2oc1=O | inactive
COc1ccc(OC)c(C2CC(=O)N3CN(c4ccccc4F)CSC3=C2C#N)c1 (configuration not stated) | active: 10 µM
O=C(O)/C=C/C(=O)NNC(=O)c1cc(-c2ccccc2)n[nH]1 | inconclusive [inhibitor, single point]
CCn1c(C)nc2cc(C(=O)NNC(=O)c3ccc(C)cc3)ccc21 | inconclusive [inhibitor, partial curve]
O=c1[nH]c2sc3c(c2c2nncn12)CCCC3 | active: 35.5 µM
CC(C)n1c(=O)[nH][nH]c1=S | active: 2.51 µM
COCCn1c(SCCN2CCOCC2)nc2c1c(=O)[nH]c(=O)n2C | active: 14.1 µM
Fc1cccc(Cc2c(-c3ccco3)nc3ccc(Br)cn23)c1 | inconclusive [inhibitor, partial curve]
CN(C)c1ccc(C(c2ccc(N(C)C)cc2)C(O)c2ccccc2)cc1 (configuration not stated) | inconclusive [inhibitor, partial curve]
COC(=O)c1sccc1NC(=O)Nc1ccc(F)cc1 | inactive
CCc1ccccc1N1CSC2=C(C#N)C(c3ccccc3F)CC(=O)N2C1 (configuration not stated) | active: 1.78 µM
COc1cc(N=c2ssnc2Cl)cc(OC)c1 | active: 5.01 µM
CCc1sc(C(C2C(=O)CC(C)(C)CC2=O)C2C(=O)CC(C)(C)CC2=O)cc1[N+](=O)[O-] | active: 31.6 µM

SMILES | Potency
COc1ccc(C(=O)Nc2ccc(N3CCCC3)cc2)cc1OC | inactive
CCN1/C(=C/C(C)=C/c2sc3ccccc3[n+]2CC)Sc2ccccc21 | inactive
COc1ccc(C2NC(=O)c3sc(=S)n(-c4ccccc4)c3N2)cc1 (configuration not stated) | active: 12.6 µM
O=C(NCCCNC(=O)c1cccs1)c1cccs1 | inactive
NC(=O)c1c(N)sc2c1CCCCC2 | inconclusive [inhibitor, partial curve]
CC(OC(=O)C1=Cc2ccccc2OC1)C(=O)NCC1CCCO1 (configuration not stated) | inactive
Cn1c2ccccc2c2ccc3c(c21)C(=O)C=CC3=O | inactive
Nc1c(C(=O)N2CCOCC2)sc2nc(N3CCOCC3)c3c(c12)CCCC3 | active: 14.1 µM
O=c1[nH]c2ccc(Cl)cc2c(-c2ccccc2)c1SC(=S)N1CCCCC1 | active: 7.94 µM
O=C(O)Cc1ccc2sc(-c3ccccc3)nc2c1 | inactive
O=[N+]([O-])c1cc2no[n+]([O-])c2cc1N1CCCCC1 | active: 3.55 µM
NS(=O)(=O)c1ccc(CCNC(=O)c2cncc(Br)c2)cc1 | inactive
O=C1NC(c2cccs2)Nc2sc3c(c21)CCCC3 (configuration not stated) | inactive
Cc1ccc(NC(=O)NC(=O)CN2CCN(c3ccc(O)cc3)CC2)c(C)c1 | active: 5.62 µM
O=C(CSc1ccc(-c2nc3ccccc3[nH]2)cn1)N1CCN(C(=O)c2ccco2)CC1 | inconclusive [inhibitor, partial curve]
Cn1c(=O)[nH]c(=O)c2c1nc(SCC(=O)O)n2Cc1ccccc1 | inconclusive [inhibitor, single point]
CC1(C)Cc2c(C#N)c(N)sc(=S)c2CS1 | inconclusive [inhibitor, partial curve]
N#C/C(=C\c1ccc(C(=O)O)cc1)c1ccccn1 | inactive
